# The list shows a part of the results.
# B1: B1257 (Bifidobacterium sp) (protein)
# chain: MKKSIRLVAAIAALAMTAGISACGSSTNGNQAKSDVTAQDVETALTDTSKNVELTVWAYSAKQMEPTVKAFEKKYPHIKINFVNTGAAGDHFTKFQNVVQAQKDIPDVVQMGANKFQQFAVSGALLNFANDSIEKAWSKLYTKTAWAQVHYAGGLYGAPQDATPLANYVRKDILDEHNLQVPESWEDIYNEGIKLHKEDSNKYMGILGSDISFFTNLYRSVGARLWKVNSVDDVELTMNSGKAKEFTEFLQKCLKDGVLEGGTVFTDEFNRSINDGRYATFINENWMGNTYKEQNPSLKGKMVVAAPPSWKGQPYQSSSVGSMMSVSAACPKEKQAAALAFINWLDSDKDAIQSWQDTNNGNFFMAASVYQDDENQRNKKETDGYYANDDVNAVYFDSMDKVNTDWEYLPFMSQVEVVFNDVIVPQMNENGDLVGAMAKAQQELKTYAKDNGFKVTTDAD
# Legend:
# Test in all cases: glycan array binding signal (z-score within array); higher = stronger binding
# Details in all cases: glycan notation: IUPAC condensed, linker removed
# [1] = biological target: Gal(b1-4)GlcNAc(b1-2)[Gal(b1-4)GlcNAc(b1-6)]Man(a1-6)[GlcNAc(b1-4)][Gal(b1-4)GlcNAc(b1-2)Man(a1-3)]Man(b1-4)GlcNAc(b1-4)GlcNAc
# Summary of the method: (§1)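 The binding signal is a Z-score computed within each array and averaged over linkers. Arrays of the same protein sequence at different concentrations or buffers were also averaged together. Data originate from 3228 arrays in the Consortium for Functional Glycomics database, kept only where the protein sequence was available.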
# [2] = biological target: Gal(b1-4)GlcNAc(b1-2)[Gal(b1-4)GlcNAc(b1-6)]Man(a1-6)[GlcNAc(b1-4)][Gal(b1-4)GlcNAc(b1-2)[Gal(b1-4)GlcNAc(b1-4)]Man(a1-3)]Man(b1-4)GlcNAc(b1-4)[Fuc(a1-6)]GlcNAc
# Summary of the method: as §1
# [3] = biological target: Gal(b1-4)GlcNAc(b1-3)Gal(b1-3)GalNAc
# Summary of the method: as §1
# [4] = biological target: Gal(b1-4)GlcNAc(b1-3)Gal(b1-3)GlcNAc
# Summary of the method: as §1
# [5] = biological target: Gal(b1-4)GlcNAc(b1-3)Gal(b1-4)Glc
# Summary of the method: as §1
# [6] = biological target: Gal(b1-4)GlcNAc(b1-3)Gal(b1-4)GlcNAc
# Summary of the method: as §1
# [7] = biological target: Gal(b1-4)GlcNAc(b1-3)Gal(b1-4)GlcNAc(b1-2)Man(a1-3)[Gal(b1-4)GlcNAc(b1-3)Gal(b1-4)GlcNAc(b1-2)Man(a1-6)]Man(b1-4)GlcNAc(b1-4)GlcNAc
# Summary of the method: as §1
# [8] = biological target: Gal(b1-4)GlcNAc(b1-3)Gal(b1-4)GlcNAc(b1-2)Man(a1-3)[Gal(b1-4)GlcNAc(b1-3)Gal(b1-4)GlcNAc(b1-2)Man(a1-6)]Man(b1-4)GlcNAc(b1-4)[Fuc(a1-6)]GlcNAc
# Summary of the method: as §1
# [9] = biological target: Gal(b1-4)GlcNAc(b1-3)Gal(b1-4)GlcNAc(b1-2)[Gal(b1-4)GlcNAc(b1-3)Gal(b1-4)GlcNAc(b1-6)]Man(a1-6)[Gal(b1-4)GlcNAc(b1-3)Gal(b1-4)GlcNAc(b1-2)Man(a1-3)]Man(b1-4)GlcNAc(b1-4)GlcNAc
# Summary of the method: as §1
# [10] = biological target: Gal(b1-4)GlcNAc(b1-3)Gal(b1-4)GlcNAc(b1-2)[Gal(b1-4)GlcNAc(b1-3)Gal(b1-4)GlcNAc(b1-6)]Man(a1-6)[Gal(b1-4)GlcNAc(b1-3)Gal(b1-4)GlcNAc(b1-2)Man(a1-3)]Man(b1-4)GlcNAc(b1-4)[Fuc(a1-6)]GlcNAc
# Summary of the method: as §1
# [11] = biological target: Gal(b1-4)GlcNAc(b1-3)Gal(b1-4)GlcNAc(b1-3)Gal(b1-4)GlcNAc
# Summary of the method: as §1
# [12] = biological target: Gal(b1-4)GlcNAc(b1-3)Gal(b1-4)GlcNAc(b1-3)Gal(b1-4)GlcNAc(b1-2)Man(a1-3)[Gal(b1-4)GlcNAc(b1-3)Gal(b1-4)GlcNAc(b1-3)Gal(b1-4)GlcNAc(b1-2)Man(a1-6)]Man(b1-4)GlcNAc(b1-4)GlcNAc
# Summary of the method: as §1
# [13] = biological target: Gal(b1-4)GlcNAc(b1-3)Gal(b1-4)GlcNAc(b1-3)Gal(b1-4)GlcNAc(b1-2)Man(a1-3)[Gal(b1-4)GlcNAc(b1-3)Gal(b1-4)GlcNAc(b1-3)Gal(b1-4)GlcNAc(b1-2)Man(a1-6)]Man(b1-4)GlcNAc(b1-4)[Fuc(a1-6)]GlcNAc
# Summary of the method: as §1
# [14] = biological target: Gal(b1-4)GlcNAc(b1-3)Gal(b1-4)GlcNAc(b1-3)Gal(b1-4)GlcNAc(b1-2)[Gal(b1-4)GlcNAc(b1-3)Gal(b1-4)GlcNAc(b1-3)Gal(b1-4)GlcNAc(b1-6)]Man(a1-6)[Gal(b1-4)GlcNAc(b1-3)Gal(b1-4)GlcNAc(b1-3)Gal(b1-4)GlcNAc(b1-2)Man(a1-3)]Man(b1-4)GlcNAc(b1-4)[Fuc(a1-6)]GlcNAc
# Summary of the method: as §1
# [15] = biological target: Gal(b1-4)GlcNAc(b1-3)Gal(b1-4)GlcNAc(b1-3)Gal(b1-4)GlcNAc(b1-3)Gal(b1-4)GlcNAc(b1-2)Man(a1-3)[Gal(b1-4)GlcNAc(b1-3)Gal(b1-4)GlcNAc(b1-3)Gal(b1-4)GlcNAc(b1-3)Gal(b1-4)GlcNAc(b1-2)Man(a1-6)]Man(b1-4)GlcNAc(b1-4)GlcNAc
# Summary of the method: as §1
# [16] = biological target: Gal(b1-4)GlcNAc(b1-3)Gal(b1-4)GlcNAc(b1-3)Gal(b1-4)GlcNAc(b1-3)Gal(b1-4)GlcNAc(b1-2)Man(a1-3)[Gal(b1-4)GlcNAc(b1-3)Gal(b1-4)GlcNAc(b1-3)Gal(b1-4)GlcNAc(b1-3)Gal(b1-4)GlcNAc(b1-2)Man(a1-6)]Man(b1-4)GlcNAc(b1-4)[Fuc(a1-6)]GlcNAc
# Summary of the method: as §1
# [17] = biological target: Gal(b1-4)GlcNAc(b1-3)Gal(b1-4)GlcNAc(b1-3)Gal(b1-4)GlcNAc(b1-3)Gal(b1-4)GlcNAc(b1-2)[Gal(b1-4)GlcNAc(b1-3)Gal(b1-4)GlcNAc(b1-3)Gal(b1-4)GlcNAc(b1-3)Gal(b1-4)GlcNAc(b1-6)]Man(a1-6)[Gal(b1-4)GlcNAc(b1-3)Gal(b1-4)GlcNAc(b1-3)Gal(b1-4)GlcNAc(b1-3)Gal(b1-4)GlcNAc(b1-2)Man(a1-3)]Man(b1-4)GlcNAc(b1-4)[Fuc(a1-6)]GlcNAc
# Summary of the method: as §1
# [18] = biological target: Gal(b1-4)GlcNAc(b1-3)Gal(b1-4)GlcNAc(b1-3)Gal(b1-4)GlcNAc(b1-3)Gal(b1-4)GlcNAc(b1-3)Gal(b1-4)GlcNAc(b1-2)Man(a1-3)[Gal(b1-4)GlcNAc(b1-3)Gal(b1-4)GlcNAc(b1-3)Gal(b1-4)GlcNAc(b1-3)Gal(b1-4)GlcNAc(b1-3)Gal(b1-4)GlcNAc(b1-2)Man(a1-6)]Man(b1-4)GlcNAc(b1-4)GlcNAc
# Summary of the method: as §1
# [19] = biological target: Gal(b1-4)GlcNAc(b1-3)Gal(b1-4)GlcNAc(b1-3)Gal(b1-4)GlcNAc(b1-3)Gal(b1-4)GlcNAc(b1-3)Gal(b1-4)GlcNAc(b1-2)Man(a1-3)[Gal(b1-4)GlcNAc(b1-3)Gal(b1-4)GlcNAc(b1-3)Gal(b1-4)GlcNAc(b1-3)Gal(b1-4)GlcNAc(b1-3)Gal(b1-4)GlcNAc(b1-2)Man(a1-6)]Man(b1-4)GlcNAc(b1-4)[Fuc(a1-6)]GlcNAc
# Summary of the method: as §1
binder,measurement,setting,value
B1,glycan array binding signal (z-score),[1],-0.095
same,glycan array binding signal (z-score),[2],-0.084
same,glycan array binding signal (z-score),[3],-0.103
same,glycan array binding signal (z-score),[4],-0.162
same,glycan array binding signal (z-score),[5],0.301
same,glycan array binding signal (z-score),[6],-0.162
same,glycan array binding signal (z-score),[7],0.212
same,glycan array binding signal (z-score),[8],0.122
same,glycan array binding signal (z-score),[9],0.24
same,glycan array binding signal (z-score),[10],0.04
same,glycan array binding signal (z-score),[11],-0.169
same,glycan array binding signal (z-score),[12],0.108
same,glycan array binding signal (z-score),[13],-0.027
same,glycan array binding signal (z-score),[14],0.044
same,glycan array binding signal (z-score),[15],0.03
same,glycan array binding signal (z-score),[16],0.042
same,glycan array binding signal (z-score),[17],0.009
same,glycan array binding signal (z-score),[18],-0.019
same,glycan array binding signal (z-score),[19],-0.012

# Source: the supplement of paper PMC8728848
